According to PubChem BioAssay (NCI):
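Cultured in 96-well plates, cells were exposed to test compound for 48 hours across five concentrations. GI50: concentration for 50% inhibition of growth. Definition used: TGI = concentration required for complete inhibition of growth.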

system: NCI-H322M lung; test: NCI anticancer screen, dose series, 48 h

SMILES | GI50 | TGI
CN(C)CCCNC(=O)c1cc(NC(=O)c2cc(NC(=O)c3ccc(/C=C/c4ccccc4)cc3)cn2C)cn1C | 23.2 µM | > 31.3 µM
COc1ccc([C@H]2C(C(=O)c3ccc(Cl)cc3)C3(N[C@@H]2c2ccccc2)C(=O)Nc2ccc(Cl)cc23)cc1 (stereo partly drawn) | 7.33 µM | 30.4 µM
O=C(NN1C(=O)/C(=C/C=C/c2ccc([N+](=O)[O-])o2)SC1=S)c1ccc([N+](=O)[O-])cc1 | 1.79 µM | 3.81 µM
Cc1ccc(/C=C(\C#N)n2nnc3c(F)cccc32)cc1 | 1.28 µM | 11.1 µM
